Reference: patent publication US12427157B2, “Methods for treatment of diseases involving acidic or hypoxic diseased tissues” (Cybrexa 1, Inc., priority 2018, dated 2025)
Where two headings read alike, the source gives them in different places. For at least one compound, name, drawing or mass did not settle the structure.

How the values were obtained:
PARP = test: Elisa PARylation assay in HeLa cells; assay type: cell-based
[1] = Cleavage of compounds with glutathione (Example A); assay type: physicochemical; settings: 8 mM glutathione in 1M Tris HCl buffer (pH 7.0), 37° C., HPLC/MSD

CC(C)C[C@H](NC(=O)[C@H](Cc1ccc(O)cc1)NC(=O)[C@H](C)NC(=O)[C@H](CCCNC(=N)N)NC(=O)[C@H](Cc1c[nH]c2ccccc12)NC(=O)[C@@H]1CCCN1C(=O)[C@H](CC(N)=O)NC(=O)[C@H](CCC(N)=O)NC(=O)[C@H](CC(=O)O)NC(=O)[C@H](CC(=O)O)NC(=O)[C@H](C)N)C(=O)N[C@@H](CC(=O)O)C(=O)N[C@@H](CC(C)C)C(=O)N[C@@H](CC(C)C)C(=O)N[C@@H](Cc1ccccc1)C(=O)N1CCC[C@H]1C(=O)N[C@H](C(=O)N[C@@H](CC(=O)O)C(=O)N[C@H](C(=O)N[C@@H](CC(C)C)C(=O)N[C@@H](CC(C)C)C(=O)N[C@@H](CC(C)C)C(=O)N[C@@H](CC(=O)O)C(=O)N[C@@H](CC(C)C)C(=O)N[C@@H](CC(C)C)C(=O)N[C@@H](Cc1c[nH]c2ccccc12)C(=O)N[C@@H](CC(=O)O)C(=O)N[C@@H](C)C(=O)N[C@@H](CC(=O)O)C(=O)N[C@@H](CCC(=O)O)C(=O)N[C@@H](CSSCCOC(=O)OCc1ccc(-c2nc3c(C(N)=O)cccc3[nH]2)cc1)C(=O)NCC(=O)O)[C@@H](C)O)[C@@H](C)O [Example 3]
IC50 (PARP; pH 5.5, 1 hour at 37° C., read-out: IC50 Elisa PARP Inhibition(nM) pH 5.5): 151 nM
IC50 (PARP; pH 8.0, 1 hour at 37° C., read-out: IC50 Elisa PARP Inhibition(nM) pH 8.0): 616 nM
time point at which cleavage was complete [1]: ≤ 60 min
